We go through 69 compounds from PubChem BioAssay AID1240 (Sanford-Burnham Center for Chemical Genomics, 2008).

Out of some 50,000 compounds screened, about 800 (1.6%) showed an effect of 50% or more. The list shows a part of the results.

For this experiment, the target named is Bcl-2-like protein 10 (Homo sapiens) (UniProt Q9HD36). Briefly: Phenotype converters, Bcl-B/TR3 peptide binding displacement, primary biochemical FP (AID 1240).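 Further: 0% = Bcl-B with tracer peptide and DMSO and 100% = tracer peptide lacking Bcl-B.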 Conditions: GST-Bcl-B / FITC-TR3 peptide fluorescence polarization; stronger effect = higher value; compound at 3.75 mg/L. A general note: In fluorescence polarisation assays a small probe gives low polarisation when free and higher when bound to something large.
UniProt Q9HD36, sequence (Q9HD36 whole entry, looked up): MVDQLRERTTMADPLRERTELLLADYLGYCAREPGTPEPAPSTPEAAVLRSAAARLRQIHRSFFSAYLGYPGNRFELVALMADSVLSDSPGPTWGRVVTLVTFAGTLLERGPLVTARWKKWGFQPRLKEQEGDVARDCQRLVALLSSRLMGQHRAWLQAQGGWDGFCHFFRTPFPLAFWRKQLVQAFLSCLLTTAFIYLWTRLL
Take `CCc1ccc(NC(=O)COc2ccc(Br)cc2)cc1`: the displacement was -1.3%.

On to `N/C(=N\S(=O)(=O)c1ccc(Cl)cc1)c1ccc(Cl)cc1`, for which the displacement amounted to 6.4%.

Turning to `Cc1cccn2c(=O)c(/C=N/NC(=O)c3ccccc3O)c(N3CCCCC3)nc12`, the displacement is 130%.

On to `O=C(Nc1ccccn1)c1ccc2c(c1)C(=O)N(N1C(=O)c3ccccc3C1=O)C2=O`, for which the displacement stood at 2.7%.

As to `Cc1cc(C)c2nc3s/c(=C\c4ccccc4)c(=O)n3c2c1`, the displacement came out at 7%.

In the case of `Cc1c(NC(=O)c2cccc3c2C(=O)c2cc(I)ccc2-3)c(=O)n(-c2ccccc2)n1C`, the displacement is 5.8%.

Take `COc1ccc(C2/C(=C(/O)c3ccccc3)C(=O)C(=O)N2CC2CCCO2)cc1` (centres undefined): the displacement turned out to be 6.6%.

Turning to `COc1ccc(OC)c(CN2CCN(C(=O)c3cccc(Cl)c3)CC2)c1`, the displacement was -33.4%.

On to `COc1cc(OC)c([N+](=O)[O-])cc1C=O`, for which the displacement came to 14.8%.

For `Cc1ccccc1OCCNc1cc(N2CCCCC2)ccc1[N+](=O)[O-]`, the displacement stood at 7.3%.

Turning to `O=[N+]([O-])c1cccc2c1=C1C(Cl)=CC=C1C=2`, the displacement was determined as 7.8%.

With `Cc1ccc([N+](=O)[O-])cc1NC(=O)c1c(-c2ccccc2)noc1C`, the displacement is 1%.

Regarding `CC1(C)CCCC2=C1CC1C(=O)N(c3ccccc3)C(=O)C1C2` (centres undefined), the displacement came to 1.9%.

Take `COc1ccc2oc(=O)c(-c3cnc(Nc4ccccc4C)s3)cc2c1`: the displacement was 10.1%.

With `Cc1cc(C=C2C(=O)NC(=S)NC2=O)c(C)n1-c1ccc(N2CCOCC2)cc1`, the displacement turned out to be 22.3%.

`CC(=O)NC(=Nc1nc(C)c2cc(C)cc(C)c2n1)NC(C)=O`: the displacement came to 8.1%.

With `Cc1ccc(C(=O)N/C(=C\c2sccc2C)C(=O)NCc2ccco2)cc1`, the displacement was determined as 7.6%.

As to `COc1ccc(N(CC(=O)NCc2cccnc2)S(=O)(=O)c2ccccc2[N+](=O)[O-])c(OC)c1`, the displacement is 13.1%.

Consider `O=C(/C=C/c1ccco1)NCc1ccc(Cl)cc1`, for which the displacement is -13.9%.

For the compound `CC(=O)N(c1ccccc1)c1nnc(C)s1`, the displacement is -0.3%.

With `CC1=C(C(=O)OCCCc2ccccc2)C(c2ccccc2[N+](=O)[O-])CC(=O)N1` (centres undefined), the displacement is -9.2%.

As for `COc1ccc(N2C(=O)CC(SC(=N)N3N=C(c4cccs4)CC3c3ccc(Br)cc3)C2=O)cc1` (centres undefined), the displacement amounted to 3.5%.

Regarding `CCOC(=O)c1c(-c2ccc(Cl)cc2)csc1NC(=O)COc1ccccc1OC`, the displacement was 5.3%.

In the case of `COc1ccc(N=Cc2c(O)n(-c3ccccc3Cl)c(=O)[nH]c2=O)cc1`, the displacement is 0%.

With `CCOC(=O)c1cnn(-c2ccccc2)c1NC(=O)c1ccc(C)cc1`, the displacement was determined as 7.2%.

`Cc1cc(Cn2ccnc2)c(C)cc1Cn1ccnc1`: the displacement came to 3.2%.

Turning to `Cc1ccc(C(C)C)c(OCC(=O)Nc2ccc(Cc3ccncc3)cc2)c1`, the displacement was -1.9%.

Take `COc1ccc(N(CC(=O)Nc2ccc(C)c(C)c2)S(C)(=O)=O)cc1`: the displacement came to 0.1%.

For `O=C(/C=C/c1ccc(-c2cccc(Br)c2)o1)c1ccco1`, the displacement worked out at 11.8%.

Take `O=C(Nc1ccc(S(=O)(=O)Nc2nccs2)cc1)c1ccc2ccccc2c1`: the displacement came to 8%.

For `N/C(=N\OC(=O)c1cccc(Br)c1)c1ccccn1`, the displacement was 1.1%.

Turning to `Cc1cc(C)nc(N2CCN(c3ncnc4c3cnn4-c3ccccc3)CC2)n1`, the displacement is 2.6%.

With `O=c1sc(/C=C2/C=Nc3ccccc32)c(O)n1-c1ccccc1`, the displacement is -1%.

On to `CC1CCc2cc(F)ccc2N1C(=O)c1ccc(Cl)c(Cl)c1` (centres undefined), for which the displacement is -2.2%.

With `CN(C)/C=C1\N=C(c2ccccc2Br)OC1=O`, the displacement was -1.7%.

Turning to `Cc1ccc(NC(=O)COc2ccc(Cl)cc2Cl)cc1N(C)C`, the displacement came to 7.8%.

As to `O=C(COc1ccccc1Cl)NNC(=O)c1cccnc1`, the displacement was -18.1%.

Take `O=C1c2ccccc2NC(c2ccc(Cl)c(Cl)c2)N1Cc1ccccc1` (centres undefined): the displacement was found to be 15.9%.

Take `Cc1nc2c(c(C)nn2-c2ccccc2)c(C)c1C`: the displacement was -12.2%.

As to `Cc1cnn(-c2cc(C(F)(F)F)nc(-c3ccccc3)n2)c1`, the displacement is -8.4%.

On to `COc1cc(/C=C2/SC(=S)N(CC(=O)NCCCN3CCOCC3)C2=O)cc(OC)c1OC`, for which the displacement was 15%.

Turning to `COc1ccc(C2CC(c3ccccc3)=NN2c2ccccc2OC)cc1` (centres undefined), the displacement came out at 8.8%.

Consider `CC(C)(C)c1ccc(C(=O)Oc2ccc(/C=N/O)cc2)cc1`, for which the displacement stood at 1.4%.

As to `Cc1ccc(-n2nc3cc(C)c(NC(=O)Cc4ccccc4)cc3n2)cc1`, the displacement was 3.7%.

Consider `Cc1cc(NC(=O)c2ccco2)ccc1NC(=O)c1ccccc1`, for which the displacement was -2.1%.

`CCOC(=O)c1c(NC(=O)c2cc(OC)cc(OC)c2)sc(C)c1CC`: the displacement turned out to be 20.4%.

Turning to `CCN(CC)CCCCCOc1cc(C)cc(C)c1C`, the displacement is -8.7%.

As for `CCOC(=O)CC(=O)Nc1nc2ccc(Br)cc2s1`, the displacement was 4.4%.

Turning to `O=S(=O)(NCCSc1nc2ccccc2o1)c1ccccc1`, the displacement was 15.1%.

As to `CC1=NNC(=O)C1CC(=O)N/N=C/c1cc(Br)ccc1O` (centres undefined), the displacement is -21.5%.

As to `O=[N+]([O-])c1ccc(Cl)c(/C=N/N2CCN(c3ccccc3)CC2)c1`, the displacement worked out at 8.4%.

`Cc1ccc(/C(O)=C2\C(=O)C(=O)N(c3nncs3)C2c2cccc([N+](=O)[O-])c2)cc1` (centres undefined): the displacement came to 10.3%.

Regarding `O=[N+]([O-])c1cccc(CONc2ncnc3nonc23)c1`, the displacement was found to be 7.5%.

For `O=C(O)c1ccc(N2C(=O)CC(N3CCC(Cc4ccccc4)CC3)C2=O)cc1` (centres undefined), the displacement was determined as 2.8%.

In the case of `Clc1ccccc1COc1cccc(/C=N/Nc2nc(N3CCOCC3)nc(N3CCOCC3)n2)c1`, the displacement amounted to 2.6%.

For `CC(C)Nc1nc(-c2ccc(Cl)cc2Cl)nc2ccccc12`, the displacement was -20.1%.

For the compound `Cc1ccc(S(=O)(=O)/N=C2/NC(=O)/C(=C/c3cc([N+](=O)[O-])ccc3O)S2)cc1`, the displacement was -17.6%.

As for `Cc1cc(NC(=O)c2ccc(C(=O)Nc3cc(C)c(O)c(C)c3)cc2)cc(C)c1O`, the displacement was -2.3%.

With `O=C(O)CCP(=O)(O)C(O)c1ccccc1` (centres undefined), the displacement was found to be 11.4%.

As to `CC(=O)Nc1ccc(N2Cc3ccccc3C2)cc1`, the displacement is -4.7%.

Take `CCOc1cc(C2NC(=O)NC(C)=C2C(=O)Nc2ccc(Cl)cc2)ccc1O` (centres undefined): the displacement is -6.2%.

Take `CCOC(=O)c1ccc(-c2ccc(/C=C3/C(=O)NN(c4ccc(F)cc4)C3=O)o2)cc1`: the displacement is -3.3%.

For the compound `CC1=CC(C)(C)N(C(=O)CN2C(=O)CCC2=O)c2ccccc21`, the displacement is -2.3%.

With `CC1=NN(c2ccccc2)C(=O)/C1=C/c1cc(C)n(C)c1C`, the displacement was -1.2%.

Consider `CCN(CC)CC(O)COc1ccccc1C(=O)CCc1ccccc1` (centres undefined), for which the displacement is -1.6%.

As to `Cc1ccc(OCC(=O)Nc2ccccc2O)cc1`, the displacement came to 13.1%.

For the compound `COc1ccc([N+](=O)[O-])cc1NC(C)C`, the displacement is 9.1%.

With `COc1cccc2c1N(C(=O)c1ccc(F)cc1)C(C)(C)c1ssc(=S)c1-2`, the displacement turned out to be 15%.

In the case of `Cc1sc(NC(=O)c2cc(Cl)ccc2Cl)c(C#N)c1C`, the displacement was -12.1%.
